Experimental data reported in ChEMBL document CHEMBL4888484, “Replenishing the malaria drug discovery pipeline: Screening and hit evaluation of the MMV Hit Generation Library 1 (HGL1) against asexual blood stage Plasmodium falciparum ,using a nano luciferase reporter read-out” (2022).
The campaign covered roughly 150,000 compounds. About 540 (0.36%) showed an effect of 50% or more. The list shows a part of the results.

Each compound was assayed on Plasmodium falciparum (assay: Primary screen in NF54 nanoGlo assay, in single point, at 2uM, 72h; a lower Z score goes with more inhibition). Details: timepoint 72 hour.
Assay type: functional, Erythrocyte
In the case of `Cc1nn(-c2ccccc2)c(N2CCN(C)CC2)c1CN(CCC(C)C)C(=O)c1cc(C(F)(F)F)cc(C(F)(F)F)c1`, the “% Inhibition” value is reported as 7% and the Z score is reported as -0.85. `CC(C)N1CCC(CC(=O)N[C@@H](C)[C@H](O)c2ccccc2)CC1` was tested, and the “% Inhibition” value was -13% and the Z score was 1.67. In the case of `CS(=O)(=O)N1CCN(C(=O)COC(=O)C2(c3cccc(Cl)c3)CCCCC2)CC1`, the “% Inhibition” value is reported as 0% and the Z score is reported as -0.05. `CC(C)CCC1CCCC1NCc1nc(=O)[nH][nH]1` (stereo unspecified) was tested, and the “% Inhibition” value was 5% and the Z score was -0.58. In the case of `CCNc1nc2c(s1)[C@@H](c1ccc3c(c1)OCO3)CC(=O)N2`, the “% Inhibition” value is reported as -10% and the Z score is reported as 0.96. For `Cc1cnc(N(C)CCc2c(C)n[nH]c2C)nc1-c1ncnn1C`, the “% Inhibition” value was 1% and the Z score was -0.14. In the case of `CCc1onc(C)c1[C@@H]1CCCN1C(=O)c1c(Cl)cnn1CC`, the “% Inhibition” value is reported as -7% and the Z score is reported as 0.99. `c1ccc2c(N3CCCC3)nc(N3CCN(C4CCCCC4)CC3)nc2c1` was tested, and the “% Inhibition” value was -5% and the Z score was 0.7. `CCCO[C@H]1CCCN(S(=O)(=O)c2c(C)cc(C)c3nonc23)C1` was tested, and the “% Inhibition” value was -15% and the Z score was 2.95. In the case of `CC(C)[C@H](NC(=O)c1ccc(Oc2ccccc2)o1)C(N)=O`, the “% Inhibition” value is reported as -9% and the Z score is reported as 1.67. For `Cc1c[nH]c([C@H](C)n2cnc3ncccc3c2=O)n1`, the “% Inhibition” value was -3% and the Z score was 0.61. For `Cc1cccc(NC(=O)Cn2c(C)cc(C)c(-c3nc(-c4ccccc4)no3)c2=O)c1`, the “% Inhibition” value was -10% and the Z score was 1.83. With `CN(C)S(=O)(=O)N1C[C@H]2CCC(=O)c3cccc1c32` the “% Inhibition” value was 0% and the Z score was 0.02. In the case of `O=C(Cn1c(=O)c2nncn2c2ncccc21)N1CCN(c2ccccc2)CC1`, the “% Inhibition” value is reported as 0% and the Z score is reported as 0.06. For `Cc1cccn2cc(C(=O)N3CCCn4cncc4C3)nc12`, the “% Inhibition” value was 13% and the Z score was -1.23. In the case of `NC1=C(c2nc3ccccc3s2)C(=O)CN1Cc1ccco1`, the “% Inhibition” value is reported as 30% and the Z score is reported as -3.34. `COc1cc(CN[C@H](c2ccc(F)c(Cl)c2)C2CC2)on1` was tested, and the “% Inhibition” value was -6% and the Z score was 0.82. With `O=C(CCCN1CCCCC1=O)NCCC1(O)CCCC1` the “% Inhibition” value was -10% and the Z score was 1.16. `COc1cc(N[C@@H]2C(=O)Nc3c(C)cccc32)ncn1` was tested, and the “% Inhibition” value was -6% and the Z score was 0.7. In the case of `CCCn1ncc(C(=O)NCCCn2ccnn2)c1C`, the “% Inhibition” value is reported as -11% and the Z score is reported as 1.35. `Nc1noc2cc(C(F)(F)F)cnc12` was tested, and the “% Inhibition” value was 33% and the Z score was -0.53. `COc1ncc(-c2c(C#N)c(N)nc3c2C[C@@H](c2ccccc2)CC3)cn1` was tested, and the “% Inhibition” value was 3% and the Z score was -0.45. In the case of `COc1ccc(C)cc1[C@@H](O)CN1CCN(c2ncccn2)CC1`, the “% Inhibition” value is reported as 1% and the Z score is reported as -0.17. In the case of `CCc1cc2c3c([nH]c2cc1S(=O)(=O)N(CC)c1ccccc1)CCCC3=O`, the “% Inhibition” value is reported as -11% and the Z score is reported as 2.04. In the case of `CNS(=O)(=O)c1ccccc1NS(=O)(=O)c1c(C)sc2ccccc12`, the “% Inhibition” value is reported as -2% and the Z score is reported as 0.29. In the case of `c1nc(CCc2nc(C3CC4CCCCN4C3)no2)cs1` (stereo unspecified), the “% Inhibition” value is reported as -9% and the Z score is reported as 1.19. In the case of `COc1ccc(C)c2sc(N(Cc3cccnc3)C(=O)c3ccnn3C)nc12`, the “% Inhibition” value is reported as -9% and the Z score is reported as 1.68. In the case of `CC(C)(O)CCn1c(=O)n(C2=CCCCC2)c2ccccc21`, the “% Inhibition” value is reported as -9% and the Z score is reported as 0.95. `CCC(C(=O)N1CCCCC1c1cc(C(N)=O)[nH]n1)c1ccccc1` (stereo unspecified) was tested, and the “% Inhibition” value was 14% and the Z score was -1.86. With `Cc1cccc(OCc2nc(CN(CCN3CCCC3)C(=O)C(C)C)cs2)c1C` the “% Inhibition” value was -5% and the Z score was 0.81. With `Cc1cc(C)c(C)c(S(=O)(=O)N2CC(O)C[C@H]2C(=O)NCC(=O)OCC2CC2)c1C` (stereo partly specified) the “% Inhibition” value was 1% and the Z score was -0.06. For `Fc1ccc(OC2CCN(c3ccc4nnnn4n3)CC2)c(F)c1`, the “% Inhibition” value was 1% and the Z score was -0.19. `Nc1nc(COC(=O)CCc2ccc(Cl)cc2)nc(Nc2ccccc2)n1` was tested, and the “% Inhibition” value was 2% and the Z score was -0.33. `CC(C)[C@H]1CCO[C@H]1C(=O)N1CCC(C)S(=O)(=O)CC1` (stereo partly specified) was tested, and the “% Inhibition” value was 6% and the Z score was -1.09. In the case of `CCN1CC(=O)N[C@H]2CN(C(=O)c3c[nH]c(=O)c(Cl)c3)CC[C@@H]2OCc2cccc(c2)Oc2cc(OC(C)C)cc(c2)C1=O`, the “% Inhibition” value is reported as -6% and the Z score is reported as 1.09. `NCC1(c2nc3ccccc3s2)CC1` was tested, and the “% Inhibition” value was 8% and the Z score was -1.01. For `CN(C)c1cc(CCOCc2ccccc2)ncn1`, the “% Inhibition” value was 0% and the Z score was 0.05. In the case of `Cc1ccc(Nc2nc(C(=O)NCc3ccc(C)o3)cs2)c(C)c1`, the “% Inhibition” value is reported as -3% and the Z score is reported as 0.32. `CC[C@H]1c2cccn2CCN1C(=O)Cc1c(C)n[nH]c1C` was tested, and the “% Inhibition” value was 0% and the Z score was -0.01. With `Cc1ncccc1C(=O)NCC(=O)N1CCCCCNC(=O)C[C@H]1c1ccccc1` the “% Inhibition” value was -16% and the Z score was 2.11. With `Cn1cc(S(=O)(=O)N2CCCC2CC(O)c2ccco2)cn1` (stereo unspecified) the “% Inhibition” value was -13% and the Z score was 1.13. For `COc1cc(C(=O)N2CC[C@](C)(O)[C@H](Cc3ccccc3)C2)ccn1`, the “% Inhibition” value was -10% and the Z score was 1.82. With `Cc1occc1C(=O)N(Cc1ccco1)C1CC1` the “% Inhibition” value was 1% and the Z score was -0.13. With `O=C(c1ccsc1)N1CC[C@H](CCOc2ccccc2)C1` the “% Inhibition” value was -4% and the Z score was 0.66. `CN(C)Cc1cnc(CN2CCC[C@H](n3cncn3)C2)s1` was tested, and the “% Inhibition” value was -6% and the Z score was 0.93. `Cc1noc(C)c1CS(=O)(=O)CC(=O)N1CCc2ccccc21` was tested, and the “% Inhibition” value was -11% and the Z score was 1.73. `Cn1nc2nc(N3CCN(C(=O)[C@@H]4CCCO4)CC3)nc(-c3ccc(F)c(Cl)c3)c2c1N` was tested, and the “% Inhibition” value was -1% and the Z score was 0.1. For `CCN(Cc1cnc(C)cn1)Cc1ccc(C)o1`, the “% Inhibition” value was 7% and the Z score was -0.88. In the case of `O=C1CCCN1CC(=O)N1CCO[C@@H](CC(c2ccccc2)c2ccccc2)C1`, the “% Inhibition” value is reported as -5% and the Z score is reported as 0.71. With `Cc1onc(-c2ccccc2)c1C(=O)N1CC[C@H](Cc2ccc(CO)cc2)C1` the “% Inhibition” value was -7% and the Z score was 1.04. `COc1ccccc1OCCCN1C(=O)[C@](O)(CC(C)=O)c2cccc(C)c21` was tested, and the “% Inhibition” value was -2% and the Z score was 0.25. `CC(C)CCC(=O)N1CCC(N2C(=O)CC[C@H]2C(=O)NCc2ccccc2)CC1` was tested, and the “% Inhibition” value was -6% and the Z score was 0.96. In the case of `CCc1nnc(CN[C@@H](C(=O)OC(C)(C)C)c2ccccc2)o1`, the “% Inhibition” value is reported as -4% and the Z score is reported as 0.41.
